Data published in PMC4336329 (PLoS ONE, 2015).
Among all 310,000 compounds or so, about 14,000 (4.5%) showed an effect of 50% or more. The effect is printed as a negative number. Some of the results follow.

Target: human ether-à-go-go-related gene (hERG) potassium channel (human, UniProt Q12809)
Experiment: primary screen, population patch clamp on CHO cells stably expressing hERG
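Also: peak tail current of the secondary pulse compared with the same well before compound.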

human ether-à-go-go-related gene (hERG) potassium channel, sequence (Q12809 whole entry, looked up): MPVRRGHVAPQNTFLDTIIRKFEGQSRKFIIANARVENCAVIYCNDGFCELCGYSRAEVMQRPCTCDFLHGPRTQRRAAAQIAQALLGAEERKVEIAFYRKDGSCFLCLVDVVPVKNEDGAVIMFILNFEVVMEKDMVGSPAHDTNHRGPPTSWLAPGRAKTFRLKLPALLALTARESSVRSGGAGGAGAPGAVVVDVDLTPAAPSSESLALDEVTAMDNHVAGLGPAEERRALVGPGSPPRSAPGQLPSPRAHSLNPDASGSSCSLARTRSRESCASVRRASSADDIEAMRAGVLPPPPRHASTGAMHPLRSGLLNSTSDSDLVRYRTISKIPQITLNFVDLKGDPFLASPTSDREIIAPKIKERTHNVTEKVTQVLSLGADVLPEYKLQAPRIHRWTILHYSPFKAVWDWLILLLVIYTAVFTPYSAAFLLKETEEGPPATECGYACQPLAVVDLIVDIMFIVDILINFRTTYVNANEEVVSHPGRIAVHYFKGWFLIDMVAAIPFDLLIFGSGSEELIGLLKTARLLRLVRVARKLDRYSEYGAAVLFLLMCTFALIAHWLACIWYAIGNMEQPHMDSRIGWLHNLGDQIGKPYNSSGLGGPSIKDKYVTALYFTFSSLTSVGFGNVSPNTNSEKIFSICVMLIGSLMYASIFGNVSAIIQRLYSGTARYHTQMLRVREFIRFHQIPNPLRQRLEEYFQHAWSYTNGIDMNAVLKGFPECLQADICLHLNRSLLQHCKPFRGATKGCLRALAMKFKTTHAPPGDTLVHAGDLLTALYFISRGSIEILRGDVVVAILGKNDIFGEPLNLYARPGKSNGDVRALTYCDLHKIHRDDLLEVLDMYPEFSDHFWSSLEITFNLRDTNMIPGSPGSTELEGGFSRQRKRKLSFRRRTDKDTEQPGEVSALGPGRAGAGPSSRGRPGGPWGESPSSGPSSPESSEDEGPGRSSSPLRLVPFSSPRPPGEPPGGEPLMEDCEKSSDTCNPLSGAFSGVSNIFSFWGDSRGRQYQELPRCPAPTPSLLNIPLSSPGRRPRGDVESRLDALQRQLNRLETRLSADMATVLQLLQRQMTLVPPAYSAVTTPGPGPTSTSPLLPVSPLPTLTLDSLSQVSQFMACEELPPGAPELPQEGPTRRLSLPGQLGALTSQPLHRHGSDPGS

| Structure (SMILES) | hERG current change (%, negative = inhibition) at 10uM |
| --- | --- |
| N#C/C(=C\c1ccc(-c2ccccc2[N+](=O)[O-])o1)C(=O)N1CCOCC1 | -33.4% |
| COc1cccc(C2Nc3ccc4ccccc4c3C3=C2C(=O)CC(C)(C)C3)c1OCC(=O)O (centres unmarked) | 20.6% |
| COc1ccc(C(=O)/C(=C/N(C)C)S(=O)(=O)c2ccccc2)cc1 | 10.8% |
| O=C(CCN1C(=O)/C(=C/C=C/c2ccccc2)SC1=S)Nc1cccnc1 | 16.7% |
| COc1ccc(NC(=O)CN(C)C(=O)c2cc3c(s2)CCCCC3)cc1 | -1.48% |
| CCOC(=O)c1sc(NC(=O)CSc2nc3c(cc2C#N)CCCCCC3)c(C#N)c1C | -3.02% |
| COc1ccc([C@H]2[C@H]3C=CC[C@@H](C)[C@@H]3C(=O)N2Cc2ccccc2)cc1Cl | 8.83% |
| Cc1[nH]c(=O)[nH]c(=O)c1S(=O)(=O)Nc1ccc(Oc2ccccc2)cc1 | 4.18% |
| Cc1cc(C)c2cc(C(=O)Nc3ccc4c(c3)OCO4)[nH]c2c1 | 16.2% |
| C/C(=N\NC(=O)CCc1ccc(S(=O)(=O)N2CCOCC2)cc1)c1ccc(OC(F)F)cc1 | 6.63% |
| O=C(N=Nc1c(O)n(C2OC(=O)c3ccccc32)c2ccccc12)c1ccc(O)cc1 (centres unmarked) | -0.695% |
| CCN(CC)S(=O)(=O)c1csc(C(=O)NC2CCCCC2)c1 | -8.22% |
| O=C(CN1CCC(NC(=O)c2ccccc2)CC1)NCc1ccccc1F | -20.6% |
| Cc1csc(SCC(=O)Nc2cc(S(=O)(=O)N3CCOCC3)ccc2N2CCOCC2)n1 | -45.8% |
| Cc1nc2ncnn2c(C)c1CCC(=O)Nc1csc(N)n1 | -27.9% |
| CCOc1ccc(-n2nc3c(=O)n(CCN4CCCCC4)nc(C)c3c2C)cc1 | -22.5% |
| OC1CCCN(Cc2ccccc2)C1 (centres unmarked) | -4.02% |
| CN1CCN(c2ccccc2/C=N/NC(=O)c2cccnc2)CC1 | 4.8% |
| c1ccc(-c2nc(-c3cccnc3)cs2)cc1 | -0.218% |
| O=C(Cc1ccccc1[N+](=O)[O-])NCc1ccc(Cl)cc1 | 5.25% |
| CC1Cn2c(nnc2-c2cccc(N)c2)S1 (centres unmarked) | 9.25% |
| COc1ccc(C(=O)N=C2SC3CS(=O)(=O)CC3N2Cc2ccccc2)cc1OC (centres unmarked) | 13.3% |

| Structure (SMILES) | hERG current change (%, negative = inhibition) at 10uM |
| --- | --- |
| CSCCC(NC(=O)c1ccc(Br)cc1)C(=O)O (centres unmarked) | 13.7% |
| Cc1ccc(NC(=S)NNC(=O)c2c([N+](=O)[O-])c(C)nn2C)cc1 | 7.99% |
| COc1cc(C(=O)Nc2cc(C)ccn2)cc(OC)c1OC | 14.5% |
| COC(=O)Cc1c[nH]c2cccc(OCC(O)CN(Cc3ccccc3)C(C)C)c12.O=C(O)c1ccccc1O (centres unmarked) | -63% |
| Cc1ccc(CNCc2ccc3c(c2)OCO3)c(C)c1.O=C(O)C(=O)O | -15.8% |
| c1cc2c(cc1CN1CCNCC1)OCO2 | 10.8% |
| CN1CCCC1CCNC1C2CC3CC(C2)CC1C3 (centres unmarked) | -2.88% |
| COc1ccc(C(=O)C2CCN(CC(=O)NCc3ccccc3)CC2)cc1 | -46.3% |
| COc1ccccc1C(=O)NC(=O)COC(=O)Cc1ccccc1[N+](=O)[O-] | 8.83% |
| O=C(c1ccc(NC2=NC3CS(=O)(=O)CC3S2)cc1)N1CCN(c2ccccc2)CC1 (centres unmarked) | 20.7% |
| CCCCn1cc(S(=O)(=O)c2ccccc2)c(=O)c2cc(C)ccc21 | -28.9% |
| COC(=O)COc1ccccc1C(N)=O | 8.81% |
| O=c1c2ccccc2nc(SCc2nc(-c3ccccc3)no2)n1-c1ccc(F)cc1 | 9.12% |
| O=C(/C=C/c1ccccc1)c1ccc(NC2=NCCCS2)cc1 | -6.63% |
| COc1ccc(NC(=O)CSc2nccc(C)n2)cc1 | 11.9% |
| CCCN(C(=O)c1cccc(-n2cccc2)c1)c1c(N)n(Cc2ccccc2)c(=O)[nH]c1=O | 13.6% |
| O=C(CC(C(=O)O)P(=O)(c1ccccc1)c1ccccc1)c1ccc(Br)cc1 (centres unmarked) | 5.9% |
| COc1ccc(/C=N/N=C2/NC(=O)C(CC(=O)NC(N)=O)S2)cc1 (centres unmarked) | 5.13% |
| CCN(CC)C(=O)c1cn(C)c(=O)c2cc(OC)c(OC)cc12 | 16.1% |
| CCN1C(=O)[C@H]2[C@@H](c3ccc(SC4CCCCC4)c(OC)c3)N[C@@](Cc3ccccc3)(C(=O)OC)[C@H]2C1=O.O=C(O)C(F)(F)F | -3.49% |
| CN1CCC(N2CCCC(C(=O)O)C2)CC1.Cl (centres unmarked) | 6.26% |
| O=C(N/N=C/c1ccc(Br)o1)c1cccnc1 | 2.33% |
